{"source": "paper PMC9911399", "about": "“Two distinct binding modes provide the RNA-binding protein RbFox with extraordinary sequence specificity”", "binders": {"B1": {"name": "CUAAAGU (DNA:RNA)", "RNA": "GGGAGACCGGAAUUCAGAUUGUCCCUAAAGUUUAAAUCCCGUCGUAGCCACCA", "DNA 1": "CAATCTGAATTCCGGTCTCCC", "DNA 2": "TGGTGGCTACGACGGGATT"}, "B2": {"name": "CUUGGUA (DNA:RNA)", "RNA": "B1 RNA with A27U, A28G, A29G, G30U, U31A", "DNA 1": "CAATCTGAATTCCGGTCTCCC", "DNA 2": "TGGTGGCTACGACGGGATT"}, "B3": {"name": "CAGCCGU (DNA:RNA)", "RNA": "B1 RNA with U26A, A27G, A28C, A29C", "DNA 1": "CAATCTGAATTCCGGTCTCCC", "DNA 2": "TGGTGGCTACGACGGGATT"}, "B4": {"name": "CGUUAUA (DNA:RNA)", "RNA": "B1 RNA with U26G, A27U, A28U, G30U, U31A", "DNA 1": "CAATCTGAATTCCGGTCTCCC", "DNA 2": "TGGTGGCTACGACGGGATT"}, "B5": {"name": "CUGUUCG (DNA:RNA)", "RNA": "B1 RNA with A27G, A28U, A29U, G30C, U31G", "DNA 1": "CAATCTGAATTCCGGTCTCCC", "DNA 2": "TGGTGGCTACGACGGGATT"}, "B6": {"name": "UUGAGGA (DNA:RNA)", "RNA": "B1 RNA with C25U, A27G, A29G, U31A", "DNA 1": "CAATCTGAATTCCGGTCTCCC", "DNA 2": "TGGTGGCTACGACGGGATT"}, "B7": {"name": "CAUUAUA (DNA:RNA)", "RNA": "B1 RNA with U26A, A27U, A28U, G30U, U31A", "DNA 1": "CAATCTGAATTCCGGTCTCCC", "DNA 2": "TGGTGGCTACGACGGGATT"}, "B8": {"name": "AAUGAGC (DNA:RNA)", "RNA": "B1 RNA with C25A, U26A, A27U, A28G, U31C", "DNA 1": "CAATCTGAATTCCGGTCTCCC", "DNA 2": "TGGTGGCTACGACGGGATT"}, "B9": {"name": "AGACGAC (DNA:RNA)", "RNA": "B1 RNA with C25A, U26G, A28C, A29G, G30A, U31C", "DNA 1": "CAATCTGAATTCCGGTCTCCC", "DNA 2": "TGGTGGCTACGACGGGATT"}, "B10": {"name": "CGACACU (DNA:RNA)", "RNA": "B1 RNA with U26G, A28C, G30C", "DNA 1": "CAATCTGAATTCCGGTCTCCC", "DNA 2": "TGGTGGCTACGACGGGATT"}, "B11": {"name": "UUAUUAG (DNA:RNA)", "RNA": "B1 RNA with C25U, A28U, A29U, G30A, U31G", "DNA 1": "CAATCTGAATTCCGGTCTCCC", "DNA 2": "TGGTGGCTACGACGGGATT"}, "B12": {"name": "CUCCGAC (DNA:RNA)", "RNA": "B1 RNA with A27C, A28C, A29G, G30A, U31C", "DNA 1": "CAATCTGAATTCCGGTCTCCC", "DNA 2": "TGGTGGCTACGACGGGATT"}, "B13": {"name": "GCCUUCG (DNA:RNA)", "RNA": "GGGAGACCGGAAUUCAGAUUGUCCGCCUUCGUUAAAUCCCGUCGUAGCCACCA", "DNA 1": "CAATCTGAATTCCGGTCTCCC", "DNA 2": "TGGTGGCTACGACGGGATT"}, "B14": {"name": "UAGCUAG (DNA:RNA)", "RNA": "B13 RNA with G25U, C26A, C27G, U28C, C30A", "DNA 1": "CAATCTGAATTCCGGTCTCCC", "DNA 2": "TGGTGGCTACGACGGGATT"}, "B15": {"name": "CGGGUGG (DNA:RNA)", "RNA": "B1 RNA with U26G, A27G, A28G, A29U, U31G", "DNA 1": "CAATCTGAATTCCGGTCTCCC", "DNA 2": "TGGTGGCTACGACGGGATT"}, "B16": {"name": "CUCACUU (DNA:RNA)", "RNA": "B1 RNA with A27C, A29C, G30U", "DNA 1": "CAATCTGAATTCCGGTCTCCC", "DNA 2": "TGGTGGCTACGACGGGATT"}, "B17": {"name": "ACCUUAG (DNA:RNA)", "RNA": "B13 RNA with G25A, C30A", "DNA 1": "CAATCTGAATTCCGGTCTCCC", "DNA 2": "TGGTGGCTACGACGGGATT"}, "B18": {"name": "AUCGGGA (DNA:RNA)", "RNA": "B1 RNA with C25A, A27C, A28G, A29G, U31A", "DNA 1": "CAATCTGAATTCCGGTCTCCC", "DNA 2": "TGGTGGCTACGACGGGATT"}, "B19": {"name": "CUCUCGU (DNA:RNA)", "RNA": "B1 RNA with A27C, A28U, A29C", "DNA 1": "CAATCTGAATTCCGGTCTCCC", "DNA 2": "TGGTGGCTACGACGGGATT"}, "B20": {"name": "UCUCUUA (DNA:RNA)", "RNA": "B13 RNA with G25U, C27U, U28C, C30U, G31A", "DNA 1": "CAATCTGAATTCCGGTCTCCC", "DNA 2": "TGGTGGCTACGACGGGATT"}, "B21": {"name": "CGAAUGG (DNA:RNA)", "RNA": "B1 RNA with U26G, A29U, U31G", "DNA 1": "CAATCTGAATTCCGGTCTCCC", "DNA 2": "TGGTGGCTACGACGGGATT"}, "B22": {"name": "UGUGAGA (DNA:RNA)", "RNA": "B1 RNA with C25U, U26G, A27U, A28G, U31A", "DNA 1": "CAATCTGAATTCCGGTCTCCC", "DNA 2": "TGGTGGCTACGACGGGATT"}, "B23": {"name": "CGAAUCG (DNA:RNA)", "RNA": "B1 RNA with U26G, A29U, G30C, U31G", "DNA 1": "CAATCTGAATTCCGGTCTCCC", "DNA 2": "TGGTGGCTACGACGGGATT"}, "B24": {"name": "UUAUAUC (DNA:RNA)", "RNA": "B1 RNA with C25U, A28U, G30U, U31C", "DNA 1": "CAATCTGAATTCCGGTCTCCC", "DNA 2": "TGGTGGCTACGACGGGATT"}, "B25": {"name": "UAAUGAG (DNA:RNA)", "RNA": "B13 RNA with G25U, C26A, C27A, U29G, C30A", "DNA 1": "CAATCTGAATTCCGGTCTCCC", "DNA 2": "TGGTGGCTACGACGGGATT"}, "B26": {"name": "ACCCCUC (DNA:RNA)", "RNA": "B13 RNA with G25A, U28C, U29C, C30U, G31C", "DNA 1": "CAATCTGAATTCCGGTCTCCC", "DNA 2": "TGGTGGCTACGACGGGATT"}, "B27": {"name": "UGCCAUA (DNA:RNA)", "RNA": "B1 RNA with C25U, U26G, A27C, A28C, G30U, U31A", "DNA 1": "CAATCTGAATTCCGGTCTCCC", "DNA 2": "TGGTGGCTACGACGGGATT"}, "B28": {"name": "GUACGAU (DNA:RNA)", "RNA": "B1 RNA with C25G, A28C, A29G, G30A", "DNA 1": "CAATCTGAATTCCGGTCTCCC", "DNA 2": "TGGTGGCTACGACGGGATT"}, "B29": {"name": "UGCGUUG (DNA:RNA)", "RNA": "B13 RNA with G25U, C26G, U28G, C30U", "DNA 1": "CAATCTGAATTCCGGTCTCCC", "DNA 2": "TGGTGGCTACGACGGGATT"}, "B30": {"name": "GUGCGGG (DNA:RNA)", "RNA": "B1 RNA with C25G, A27G, A28C, A29G, U31G", "DNA 1": "CAATCTGAATTCCGGTCTCCC", "DNA 2": "TGGTGGCTACGACGGGATT"}, "B31": {"name": "CCAAUCU (DNA:RNA)", "RNA": "B1 RNA with U26C, A29U, G30C", "DNA 1": "CAATCTGAATTCCGGTCTCCC", "DNA 2": "TGGTGGCTACGACGGGATT"}}, "note": "Residue numbers refer to the chain shown, from its start. The list shows a part of the results.", "data": [{"biological_target": "T1, RBFOX1 RRM (Homo sapiens, UniProt Q9NWB1 109-208)", "T1 sequence": "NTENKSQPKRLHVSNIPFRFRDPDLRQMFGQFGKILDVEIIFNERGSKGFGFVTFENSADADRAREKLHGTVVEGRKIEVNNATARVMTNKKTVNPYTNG", "assay": "EMSA; HiTS-Eq, 1 nM pool, 10 min; buffer printed only for the single-RNA assays: 10 mM Tris pH 7.5, 150 mM NaCl, 3.4 mM EDTA, 0.001% NP-40, 30 C", "settings": "tags: His6 N-terminal (pET28a); label: 5' 32P", "method_in_brief": "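A pool of RNA with 7 randomized nucleotides, 5′-radiolabelled and with DNA-annealed flanks, was equilibrated at 1 nM for 10 min in 50 µL with purified RbFox RRM, wild type or mutant, across increasing protein concentrations. Free RNA was separated by 8% native PAGE, excised, reverse-transcribed, barcoded by PCR and sequenced. Relative association constants were obtained from read-count changes of each RNA species versus the control reaction and normalised to the cognate motif.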", "values": [{"binder": "B1", "binding signal": "0.00449 KA relative to UGCAUGU"}, {"binder": "B2", "binding signal": "0.0154 KA relative to UGCAUGU"}, {"binder": "B3", "binding signal": "0.00514 KA relative to UGCAUGU"}, {"binder": "B4", "binding signal": "0.00282 KA relative to UGCAUGU"}, {"binder": "B5", "binding signal": "0.0279 KA relative to UGCAUGU"}, {"binder": "B6", "binding signal": "0.00625 KA relative to UGCAUGU"}, {"binder": "B7", "binding signal": "0.00129 KA relative to UGCAUGU"}, {"binder": "B8", "binding signal": "0.00453 KA relative to UGCAUGU"}, {"binder": "B9", "binding signal": "0.00668 KA relative to UGCAUGU"}, {"binder": "B10", "binding signal": "0.00458 KA relative to UGCAUGU"}, {"binder": "B11", "binding signal": "0.0112 KA relative to UGCAUGU"}, {"binder": "B12", "binding signal": "0.00912 KA relative to UGCAUGU"}, {"binder": "B13", "binding signal": "0.0176 KA relative to UGCAUGU"}, {"binder": "B14", "binding signal": "0.0203 KA relative to UGCAUGU"}, {"binder": "B15", "binding signal": "0.0171 KA relative to UGCAUGU"}, {"binder": "B16", "binding signal": "0.00341 KA relative to UGCAUGU"}, {"binder": "B17", "binding signal": "0.00468 KA relative to UGCAUGU"}, {"binder": "B18", "binding signal": "0.00823 KA relative to UGCAUGU"}, {"binder": "B19", "binding signal": "0.00829 KA relative to UGCAUGU"}, {"binder": "B20", "binding signal": "0.00398 KA relative to UGCAUGU"}, {"binder": "B21", "binding signal": "0.0141 KA relative to UGCAUGU"}, {"binder": "B22", "binding signal": "0.0236 KA relative to UGCAUGU"}, {"binder": "B23", "binding signal": "0.00827 KA relative to UGCAUGU"}, {"binder": "B24", "binding signal": "0.00257 KA relative to UGCAUGU"}, {"binder": "B25", "binding signal": "0.0138 KA relative to UGCAUGU"}, {"binder": "B26", "binding signal": "0.00175 KA relative to UGCAUGU"}, {"binder": "B27", "binding signal": "0.0099 KA relative to UGCAUGU"}, {"binder": "B28", "binding signal": "0.0134 KA relative to UGCAUGU"}, {"binder": "B29", "binding signal": "0.0296 KA relative to UGCAUGU"}, {"binder": "B30", "binding signal": "0.0167 KA relative to UGCAUGU"}, {"binder": "B31", "binding signal": "0.000199 KA relative to UGCAUGU"}]}]}
